Variants at the floor of the assay are shown more often than the library holds them.
B1: tRNA (parent)
chain: CUCUCGGUAGCCAAGUUGGUUUAAGGCGCAAGACUUUAAUUUAUCACUACGAAAUCUUGAGAUCGGGCGUUCGACUCGCCCCCGGGAGAUUUUUUCCUCGAGCAA

Variants of: B1
Assay: nonsense suppression (GFP-seq) (ratio to wild type); higher = more function; SUP4oc tRNA, yeast GFP reporter sort-seq
How it was run: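 Yeast were grown in raffinose/galactose medium with 80 mg/L adenine, each strain bearing a genome-integrated ochre-suppressor tRNA variant from a ~3% random-mutation library, a galactose-driven GFP ochre reporter, and RFP. After sorting into GFP/RFP bins, every bin was sequenced on an Illumina platform at phred ≥30. The GFPSEQ value, a measure of nonsense suppression, is the weighted bin median GFP/RFP relative to the unmutated parent tRNA, using each variant's estimated cell share per bin as the weight. Only variants with ≥100 reads and ≥30 cells were included.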

Row | Variant | nonsense suppression
1 | G19A G32A G88C | ≤ 0.026
2 | G19A G65C G66U C80A | ≤ 0.026
3 | G19A G66U | ≤ 0.026
4 | G19A G73C | ≤ 0.026
5 | G19A G78A A87G | ≤ 0.026
6 | G19A U20A A31C | ≤ 0.026
7 | G19A U20G G25C U35A | ≤ 0.026
8 | G19A U21A A33G U57C C75U | ≤ 0.026
9 | G19A U35C A54G | ≤ 0.026
10 | G19A U35G U76C | ≤ 0.026
11 | G19A U55A | ≤ 0.026
12 | G19A U71A | ≤ 0.026
13 | G19A U71G | ≤ 0.026
14 | G19A U76C A87G | ≤ 0.026
15 | G19C | ≤ 0.026
16 | G19C A24G C27G C80U G85C | ≤ 0.026
17 | G19C A30G | ≤ 0.026
18 | G19C A30G G73C | ≤ 0.026
19 | G19C A30G U35C A62C | ≤ 0.026
20 | G19C A31C C83A | ≤ 0.026
21 | G19C A31G C34G U70G | ≤ 0.026
22 | G19C A31G G66U | ≤ 0.026
23 | G19C A31U | ≤ 0.026
24 | G19C A33C A60C G67A G88A | ≤ 0.026

Row | Variant | nonsense suppression
25 | G19C A33G G61A | ≤ 0.026
26 | G19C A54C A62U | ≤ 0.026
27 | G19C A54C G65A | ≤ 0.026
28 | G19C A54G | ≤ 0.026
29 | G19C A74C C79G | ≤ 0.026
30 | G19C A87G | ≤ 0.026
31 | G19C A89U | ≤ 0.026
32 | G19C C27A U70A U76G | ≤ 0.026
33 | G19C C29A | ≤ 0.026
34 | G19C C29A A54G G61A G88C | ≤ 0.026
35 | G19C C29U U55C A89C | ≤ 0.026
36 | G19C C34U | ≤ 0.026
37 | G19C C56G | ≤ 0.026
38 | G19C C56U | ≤ 0.026
39 | G19C C79A | ≤ 0.026
40 | G19C G25A G73C C79A | ≤ 0.026
41 | G19C G26A C27G U71G G73A | ≤ 0.026
42 | G19C G26C U57G U76A | ≤ 0.026
43 | G19C G28A | ≤ 0.026
44 | G19C G28C C56G | ≤ 0.026
45 | G19C G32A A60C G69U A74C | ≤ 0.026
46 | G19C G32A U35G C75A | ≤ 0.026
47 | G19C G32C U57C | ≤ 0.026
48 | G19C G61A A74C G84A | ≤ 0.026

Row | Variant | nonsense suppression
49 | G19C G67A | ≤ 0.026
50 | G19C G73C | ≤ 0.026
51 | G19C G86A | ≤ 0.026
52 | G19C G86C | ≤ 0.026
53 | G19C G88C | ≤ 0.026
54 | G19C U20A A24C G88C | ≤ 0.026
55 | G19C U20A A31C U57G U71A A89G | ≤ 0.026
56 | G19C U20G C64U A89G | ≤ 0.026
57 | G19C U20G C72G | ≤ 0.026
58 | G19C U21A C29G | ≤ 0.026
59 | G19C U22G | ≤ 0.026
60 | G19C U22G A33G | ≤ 0.026
61 | G19C U35A A60G G66A G84C G88A | ≤ 0.026
62 | G19C U35C | ≤ 0.026
63 | G19C U55A A60U G69A C80A | ≤ 0.026
64 | G19C U55A C81U | ≤ 0.026
65 | G19C U55C A89U | ≤ 0.026
66 | G19C U58C C64A | ≤ 0.026
67 | G19C U58G G88C | ≤ 0.026
68 | G19C U63A C64U U76C | ≤ 0.026
69 | G19C U63C C83A | 0.789
70 | G19C U70A | ≤ 0.026
71 | G19C U71C | ≤ 0.026
72 | G19C U71G C75G U76G C80U | ≤ 0.026

Row | Variant | nonsense suppression
73 | G19U | ≤ 0.026
74 | G19U A23C U58G | ≤ 0.026
75 | G19U A24C G26A G65C | ≤ 0.026
76 | G19U A24G | ≤ 0.026
77 | G19U A24G A87G | ≤ 0.026
78 | G19U A24G G73A | ≤ 0.026
79 | G19U A24G G78C A89C | ≤ 0.026
80 | G19U A24G U63A U71A C80G A87U | ≤ 0.026
81 | G19U A30G | ≤ 0.026
82 | G19U A30U | ≤ 0.026
83 | G19U A31G U58G | ≤ 0.026
84 | G19U A33G U70G | ≤ 0.026
85 | G19U A54C U63A | ≤ 0.026
86 | G19U A54G G61C | ≤ 0.026
87 | G19U A54U C72G | ≤ 0.026
88 | G19U A60U G73U | ≤ 0.026
89 | G19U A74U G85C | ≤ 0.026
90 | G19U A89G | ≤ 0.026
91 | G19U C27A U57C | ≤ 0.026
92 | G19U C27U G66C G69C | ≤ 0.026
93 | G19U C29A G59A | ≤ 0.026
94 | G19U C34U A62C | ≤ 0.026
95 | G19U C56U | ≤ 0.026
96 | G19U C68G | ≤ 0.026

Row | Variant | nonsense suppression
97 | G19U C68U | ≤ 0.026
98 | G19U C75U | ≤ 0.026
99 | G19U C80A | ≤ 0.026
100 | G19U C82U A89G | ≤ 0.026
101 | G19U C83U | ≤ 0.026
102 | G19U G25C G78C | ≤ 0.026
103 | G19U G25U C83U | ≤ 0.026
104 | G19U G28A G86A | ≤ 0.026
105 | G19U G28C C75U | ≤ 0.026
106 | G19U G59A G86C | ≤ 0.026
107 | G19U G59C A87U | ≤ 0.026
108 | G19U G65A | ≤ 0.026
109 | G19U G66C | ≤ 0.026
110 | G19U G67U | ≤ 0.026
111 | G19U G69A G88A | ≤ 0.026
112 | G19U U20G G59C G67U | ≤ 0.026
113 | G19U U20G U55C C68A C81G | ≤ 0.026
114 | G19U U21C | ≤ 0.026
115 | G19U U22C U70C C79U | ≤ 0.026
116 | G19U U22G C29U C79A C81A | ≤ 0.026
117 | G19U U35G | ≤ 0.026
118 | G19U U35G G84C | ≤ 0.026
119 | G19U U57C U63C | ≤ 0.026
120 | G19U U63A | ≤ 0.026

Row | Variant | nonsense suppression
121 | G19U U63C C77U G78C | ≤ 0.026
122 | G19U U63G G65C G67C C68A C79G | ≤ 0.026
123 | G19U U70G | ≤ 0.026
124 | G19U U71G | ≤ 0.026
125 | G19U U71G G84A | ≤ 0.026
126 | G19U U76C | ≤ 0.026
127 | U20A A23G C27U | ≤ 0.026
128 | U20A A23G U63C | ≤ 0.026
129 | U20A A23U U35G G85C | ≤ 0.026
130 | U20A A24C C82A | ≤ 0.026
131 | U20A A24C U76C | ≤ 0.026
132 | U20A A24G A89C | ≤ 0.026
133 | U20A A24U | 0.0696
134 | U20A A24U C27A A54C U71A | ≤ 0.026
135 | U20A A30C | ≤ 0.026
136 | U20A A31C | ≤ 0.026
137 | U20A A33C A89U | ≤ 0.026
138 | U20A A54U U57C | ≤ 0.026
139 | U20A A60C G78A C80A | ≤ 0.026
140 | U20A A60G A89G | ≤ 0.026
141 | U20A A62C | ≤ 0.026
142 | U20A A74U | 0.0745
143 | U20A C29A | ≤ 0.026
144 | U20A C29U U58C G66A | ≤ 0.026

Row | Variant | nonsense suppression
145 | U20A C34A U58G G61A | ≤ 0.026
146 | U20A C34U | ≤ 0.026
147 | U20A C34U G66U | ≤ 0.026
148 | U20A C56U | ≤ 0.026
149 | U20A C72G A87C | ≤ 0.026
150 | U20A C77G G78A C80A | ≤ 0.026
151 | U20A C80U A87U | ≤ 0.026
152 | U20A C80U A89G | ≤ 0.026
153 | U20A C81A | ≤ 0.026
154 | U20A G28A | 0.813
155 | U20A G28C | 0.182
156 | U20A G28U G84C | ≤ 0.026
157 | U20A G28U U70A C81G | ≤ 0.026
158 | U20A G28U U70A C81U | ≤ 0.026
159 | U20A G32A | ≤ 0.026
160 | U20A G32U G86A | ≤ 0.026
161 | U20A G61C | 0.0711
162 | U20A G65C | ≤ 0.026
163 | U20A G66C | ≤ 0.026
164 | U20A G73C | 0.0366
165 | U20A G73U | ≤ 0.026
166 | U20A G78A | 0.0977
167 | U20A G84U A89G | ≤ 0.026

Reference: the RNAGym collection of RNA variant scans (doi:10.1101/gad.245936.114)
